This experiment deals with Plasmodium falciparum NF54/iGP1_RE9H ulg8 stage V gametocytes. As to the kind of experiment: gametocyte viability (luciferase signal relative to DMSO control) (% of DMSO control); higher = less gametocytocidal activity, active = 50 or less. Conditions: exposure time: 72 h. An outline of the steps: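 Viability was calculated relative to the mean of DMSO vehicle wells on each plate. Day-12 stage V gametocytes of line NF54/iGP1_RE9Hulg8 (~2.5% gametocytemia, 3% hematocrit, 0.5% Albumax II medium) were exposed in 96-well plates to compounds at final 10 µM or 1 µM, one well each, for 72 h at 37 °C. Luminescence was then read on an IVIS Lumina II after D-luciferin addition.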

Structures can show the parent of a compound that is named as a salt. Hit rate of the full screen: of about 1,300 compounds, about 40 (3%) showed activity. The list shows a part of the results.

With `C[C@]12CC[C@H]3[C@@H](CCC4=CC(=O)CC[C@@]43C)[C@@H]1CC[C@@H]2C(=O)CO` [Deoxycorticosterone], the gametocyte viability is inactive: 88.9 (concentration: 1 µM) and inactive: 75.7 (concentration: 10 µM).

Take `COc1cc(NS(=O)(=O)c2ccc(N)cc2)nc(OC)n1` [Sulfadimethoxine]: the gametocyte viability is inactive: 90.7 (concentration: 1 µM) and inactive: 82.2 (concentration: 10 µM).

For the molecule `CC[N+](CC)(CC(=O)Nc1c(C)cccc1C)Cc1ccccc1` [Denatonium benzoate], the gametocyte viability runs as follows: (concentration: 1 µM) inactive: 89.7; (concentration: 10 µM) inactive: 92.8.

Take `CC1(C)O[C@@H]2[C@@H](CO[C@@]3(COS(N)(=O)=O)OC(C)(C)O[C@@H]23)O1` [Topiramate]: the gametocyte viability was inactive: 91.4 (concentration: 1 µM) and inactive: 96 (concentration: 10 µM).

Regarding `CC(C)Cn1cnc2c(N)nc3ccccc3c21` [Imiquimod], the gametocyte viability by setting is: (concentration: 1 µM) inactive: 88.4; (concentration: 10 µM) inactive: 85.1.

Turning to `NC(=O)N1c2ccccc2CC(=O)c2ccccc21` [Oxcarbazepine], the gametocyte viability reads like this: (concentration: 1 µM) inactive: 83.9; (concentration: 10 µM) inactive: 88.3.

Consider `COc1ccc2c3c1O[C@H]1C[C@@H](O)C=C[C@@]31CCN(C)C2` [Galanthamine hydrobromide], for which the gametocyte viability is inactive: 88.4 (concentration: 1 µM) and inactive: 94.7 (concentration: 10 µM).

`O=c1[nH]c(=O)n([C@H]2C[C@H](O)[C@@H](CO)O2)cc1C(F)(F)F` [Trifluridine]: the gametocyte viability runs as follows: (concentration: 1 µM) inactive: 89.9; (concentration: 10 µM) inactive: 88.1.

Regarding `Cc1nnc(SCC2=C(C(=O)O)N3C(=O)[C@@H](NC(=O)Cn4cnnn4)[C@H]3SC2)s1` [Cefazolin sodium salt], the gametocyte viability (concentration: 1 µM) was inactive: 96.4 and the gametocyte viability (concentration: 10 µM) was inactive: 99.5.

As for `CC(C)NC(=N)NC(=N)Nc1ccc(Cl)cc1` [Proguanil hydrochloride], the gametocyte viability (concentration: 1 µM) was inactive: 100 and the gametocyte viability (concentration: 10 µM) was inactive: 106.

`CN(Cc1ccc(C(C)(C)C)cc1)Cc1cccc2ccccc12` [Butenafine Hydrochloride]: the gametocyte viability was inactive: 97.1 (concentration: 1 µM) and inactive: 84.2 (concentration: 10 µM).

`S=c1[nH]cnc2nc[nH]c12` [Mercaptopurine]: the gametocyte viability is inactive: 82.1 (concentration: 1 µM) and inactive: 84.9 (concentration: 10 µM).

On to `CCCCCCCCNC(C)C(O)c1ccc(SC(C)C)cc1` (stereo not drawn) [Suloctidil], for which the gametocyte viability was inactive: 80.5 (concentration: 1 µM) and inactive: 84.4 (concentration: 10 µM).

Consider `CC(=O)CC(c1ccc([N+](=O)[O-])cc1)c1c(O)c2ccccc2oc1=O` (stereo not drawn) [Acenocoumarol], for which the gametocyte viability is inactive: 84.4 (concentration: 1 µM) and inactive: 82.4 (concentration: 10 µM).

As to `NC(=O)c1ccc[n+]([C@@H]2O[C@H](COP(=O)([O-])OP(=O)(O)OC[C@H]3O[C@@H](n4cnc5c(N)ncnc54)[C@H](O)[C@@H]3O)[C@@H](O)[C@H]2O)c1` [Nadide], the gametocyte viability is, setting by setting: (concentration: 1 µM) inactive: 85.3; (concentration: 10 µM) inactive: 79.3.

With `CNCCC=C1c2ccccc2C=Cc2ccccc21` [Norcyclobenzaprine], the gametocyte viability is, setting by setting: (concentration: 1 µM) inactive: 83.3; (concentration: 10 µM) inactive: 80.6.

`Cc1ccc(C)c(OCCCC(C)(C)C(=O)O)c1` [Gemfibrozil]: the gametocyte viability runs as follows: (concentration: 1 µM) inactive: 86.7; (concentration: 10 µM) inactive: 88.3.

On to `O=C(CCCN1CCC(O)(c2ccc(Cl)cc2)CC1)c1ccc(F)cc1` [Haloperidol], for which the gametocyte viability by setting is: (concentration: 1 µM) inactive: 80.4; (concentration: 10 µM) inactive: 80.4.

With `C[C@]12CCC(=O)C=C1C=C[C@@H]1[C@@H]2CC[C@@]2(C)[C@H]1CC[C@@]21CCC(=O)O1` [Canrenone], the gametocyte viability is inactive: 80 (concentration: 1 µM) and inactive: 83.7 (concentration: 10 µM).

Turning to `NC(=O)OCC(O)COc1ccc(Cl)cc1` (stereo not drawn) [Chlorphensin carbamate], the gametocyte viability runs as follows: (concentration: 1 µM) inactive: 86.3; (concentration: 10 µM) inactive: 83.2.

`CN1C(C(=O)Nc2ccccn2)=C(O)c2ccccc2S1(=O)=O` [Piroxicam]: the gametocyte viability (concentration: 1 µM) was inactive: 90.5 and the gametocyte viability (concentration: 10 µM) is inactive: 87.8.

`COCCOC(=O)C1=C(C)NC(C)=C(C(=O)OC(C)C)C1c1cccc([N+](=O)[O-])c1` (stereo not drawn) [Nimodipine]: the gametocyte viability was inactive: 89.5 (concentration: 1 µM) and inactive: 88.5 (concentration: 10 µM).

As for `COC(=O)CCc1ccc(OCC(O)CNC(C)C)cc1` (stereo not drawn) [Esmolol hydrochloride], the gametocyte viability was inactive: 87.8 (concentration: 1 µM) and inactive: 82.3 (concentration: 10 µM).

Consider `COc1cccc(N(C)C(=S)Oc2ccc3c(c2)CCCC3)n1` [Liranaftate], for which the gametocyte viability was inactive: 82.2 (concentration: 1 µM) and inactive: 83 (concentration: 10 µM).

`CCCNC(C)C(=O)Nc1c(C)csc1C(=O)OC` (stereo not drawn) [Articaine hydrochloride]: the gametocyte viability was inactive: 81.9 (concentration: 1 µM) and inactive: 83 (concentration: 10 µM).

`NCCc1cc[nH]n1` [Betazole hydrochloride]: the gametocyte viability is inactive: 94.2 (concentration: 1 µM) and inactive: 94.2 (concentration: 10 µM).

Regarding `Cc1c(NC(C)C)c(=O)n(-c2ccccc2)n1C` [Isopyrin hydrochloride], the gametocyte viability is inactive: 94.9 (concentration: 1 µM) and inactive: 92.5 (concentration: 10 µM).

With `CN(C)CCN(Cc1ccc(Cl)cc1)c1ccccn1` [Chloropyramine hydrochloride], the gametocyte viability (concentration: 1 µM) was inactive: 87.4 and the gametocyte viability (concentration: 10 µM) was inactive: 90.3.

`NS(=O)(=O)Cc1noc2ccccc12` [Zonisamide]: the gametocyte viability reads like this: (concentration: 1 µM) inactive: 78.5; (concentration: 10 µM) inactive: 88.5.

As to `COc1ccc2c(c1)C(=O)N(CCc1ccc(S(=O)(=O)NC(=O)NC3CCCCC3)cc1)C(=O)C2(C)C` [Gliquidone], the gametocyte viability (concentration: 1 µM) was inactive: 90.5 and the gametocyte viability (concentration: 10 µM) was inactive: 80.9.

As for `COc1ccc([C@@H]2Sc3ccccc3N(CCN(C)C)C(=O)[C@@H]2OC(C)=O)cc1` [Diltiazem hydrochloride], the gametocyte viability reads like this: (concentration: 1 µM) inactive: 91.2; (concentration: 10 µM) inactive: 91.5.

Consider `Cc1cn([C@H]2C[C@H](N=[N+]=[N-])[C@@H](CO)O2)c(=O)[nH]c1=O` [Zidovudine, AZT], for which the gametocyte viability (concentration: 1 µM) was inactive: 92.5 and the gametocyte viability (concentration: 10 µM) was inactive: 91.6.

Regarding `CC(C[N+](C)(C)C)OC(N)=O` (stereo not drawn) [Bethanechol chloride], the gametocyte viability is inactive: 94.8 (concentration: 1 µM) and inactive: 95.4 (concentration: 10 µM).

In the case of `CN(C)CCCC1(c2ccc(F)cc2)OCc2cc(C#N)ccc21` (stereo not drawn) [Citalopram Hydrobromide], the gametocyte viability is inactive: 94 (concentration: 1 µM) and inactive: 93.3 (concentration: 10 µM).

Regarding `CCCC(CCC)C(=O)O` [Valproic acid], the gametocyte viability reads like this: (concentration: 1 µM) inactive: 82.7; (concentration: 10 µM) inactive: 85.7.

In the case of `O=C(O)CNC(=O)C(CS)Cc1ccccc1` (stereo not drawn) [Thiorphan], the gametocyte viability (concentration: 1 µM) was inactive: 91.7 and the gametocyte viability (concentration: 10 µM) was inactive: 90.7.

Regarding `Cc1onc(-c2ccccc2)c1C(=O)N[C@@H]1C(=O)N2[C@@H]1SC(C)(C)[C@@H]2C(=O)O` [Oxacillin sodium], the gametocyte viability reads like this: (concentration: 1 µM) inactive: 98.1; (concentration: 10 µM) inactive: 94.6.

Regarding `COC1=CC(=O)C[C@@H](C)[C@]12Oc1c(Cl)c(OC)cc(OC)c1C2=O` [Griseofulvin], the gametocyte viability was inactive: 89.3 (concentration: 1 µM) and inactive: 84.6 (concentration: 10 µM).

Turning to `CN(C)CCC(c1ccc(Cl)cc1)c1ccccn1` (stereo not drawn) [Chlorpheniramine maleate], the gametocyte viability is, setting by setting: (concentration: 1 µM) inactive: 86.2; (concentration: 10 µM) inactive: 81.6.

The values are drawn from the supplement of paper PMC12297408.
